Data: PubChem BioAssay AID504832 (National Center for Advancing Translational Sciences (NCATS), 2011)
The campaign covered roughly 310,000 compounds. About 18,000 (5.8%) were called active. Inconclusive results, whose numbers are uncertain, are shown with a selection of clear calls. Calls come from the whole dose curve; as a rule, active = well fitted inhibition curve with a large enough effect; inconclusive = small, poorly fitted or top-dose-only effect, or another doubt; inactive = no such curve, though single readings can be large or run the other way. No potency is given beside an inconclusive call; the fits are too rough.

Experiment: Primary qHTS for delayed death inhibitors of the malarial parasite plastid, 48 hour incubation
Conditions: P. falciparum luciferase growth in erythrocytes; series mostly up to 28.7 µM
Method in brief: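 Luciferase-expressing P. falciparum in infected erythrocytes (2% hematocrit, 0.1% parasitemia final) in RPMI 1640/0.5% Albumax were exposed to compound for 48 hours at 37 C, 5% CO2; growth read as luminescence.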
Potency is the fitted concentration of half-maximal effect; tags give direction and shape of the fitted curve.

Row | SMILES | Potency
1 | CCCCN(CC)CCNC(=O)C1CCCN(S(=O)(=O)c2cccc3nsnc23)C1 (stereo unspecified) | inconclusive [inhibitor, partial curve]
2 | Cc1cc(C)nc(NC(N)=NCCc2c[nH]c3ccccc23)n1 | inconclusive [inhibitor, full curve]
3 | O=C(Cn1c(CO)nc2ccccc21)Nc1cc(C(F)(F)F)ccc1N1CCOCC1 | inconclusive [inhibitor, partial curve, poor fit]
4 | Cc1cc(NC(=O)/C=C/c2ccccc2Cl)n(-c2nc3ccccc3[nH]2)n1 | inconclusive [inhibitor, single point]
5 | COCCC(=O)N1CCC(Oc2ccc(C(=O)NC3Cc4ccccc4C3)cc2)CC1 | inconclusive [inhibitor, single point]
6 | CC1(c2cccc(Br)c2)NC(=O)N(CC(=O)Nc2ccc(S(N)(=O)=O)cc2)C1=O (stereo unspecified) | inconclusive [inhibitor, partial curve, poor fit]
7 | Cc1cc(NC(=O)c2cc([N+](=O)[O-])ccc2Cl)no1 | inconclusive [inhibitor, single point]
8 | O=C(c1ccco1)N1CCN(c2ccc([N+](=O)[O-])cc2F)CC1 | inactive
9 | COC(=O)C1=C(C)Nc2nnnn2C1c1ccccc1Cl (stereo unspecified) | inconclusive [inhibitor, partial curve]
10 | COc1ccc(C(=O)NNC(=O)C(=O)Nc2cccc3ccccc23)cc1 | inactive
11 | CNC(=O)N1CCC(C(=O)c2c(C)c(C)c(C)c(C)c2C)CC1 | inconclusive [inhibitor, single point]
12 | CCOC(=O)N1CCC(N2C(=O)c3ccccc3C2Nc2ccc(S(=O)(=O)N(CC)CC)cc2)CC1 (stereo unspecified) | inconclusive [inhibitor, single point]
13 | O=C(NC1CCCCC1)c1cc(-c2ccccn2)nc2ccccc12 | inconclusive [inhibitor, single point]
14 | CN1CCN(C(=O)C2=C[C@H](C3CCCCC3)C[C@H](OCc3ccc(CO)cc3)O2)CC1 | inconclusive [inhibitor, full curve]
15 | CCOc1ccc(NC(=S)Nc2cc(C)[nH]n2)cc1 | inactive
16 | COc1ccc(-c2cc(-c3ccccc3)nc(N3CCCC3)n2)cc1OC | active: 9.28 µM
17 | CCN(C(=O)c1cc2cccc(OC)c2oc1=O)C1CCCCC1 | inconclusive [inhibitor, single point]
18 | CC(Sc1n[nH]c(N)n1)C(=O)Nc1cccc(S(=O)(=O)N2CCOCC2)c1 (stereo unspecified) | inactive
19 | O=C(c1cccc2ccccc12)C1CCCN(C(=O)c2ccc(N3CCOCC3)cc2)C1 (stereo unspecified) | inconclusive [inhibitor, partial curve, poor fit]
20 | CC(C)c1ccc2c(c1)C(c1ccc(N3CCOCC3)cc1)=NNC(c1cccs1)=N2 | inconclusive [inhibitor, single point]
21 | Oc1ccccc1C(Nc1nccs1)c1ccc2cccnc2c1O (stereo unspecified) | active: 1.85 µM
22 | CCc1ccc(C(c2c(C)nn(-c3ccccc3)c2N)c2c(C)nn(-c3ccccc3)c2N)cc1 | active: 8.28 µM
23 | CCC(C)CCN1C(N(C)C)=NC[C@@H]1C (stereo partly specified) | inactive
24 | Cc1cc(NC(=O)CSc2nnc(-c3ccc(Br)o3)n2Cc2ccccc2)no1 | inconclusive [inhibitor, single point]

Row | SMILES | Potency
25 | CCCC(=O)NC1C2CC3CC(C2)CC1C3 (stereo unspecified) | inconclusive [inhibitor, single point]
26 | CCCc1ccc2oc(C(=O)N3CCN(c4cnccn4)CC3)c(C)c2c1 | inconclusive [inhibitor, single point]
27 | CS(=O)(=O)N1N=C(c2cccs2)CC1c1ccccc1O (stereo unspecified) | inactive
28 | CCOc1ccc(NC(=O)CN(C)C(=O)c2ccncc2)cc1OCC | inactive
29 | CCN(CCNc1ccc(Cl)cc1[N+](=O)[O-])C(=O)c1cc([N+](=O)[O-])c(N(C)C)cc1OC | inconclusive [inhibitor, partial curve, poor fit]
30 | CCOC(=O)c1c(NC(=O)C2COc3ccccc3O2)sc(C)c1C (stereo unspecified) | active: 5.86 µM
31 | COc1cc(NC(=S)N2CCCC(CO)C2)c(OC)cc1Cl (stereo unspecified) | inactive
32 | CO[C@@H](COC(N)=O)C1=C(N2CC2)C(=O)C(C)=C(N2CC2)C1=O | active: 0.601 µM
33 | CN(Cc1ccccc1)C(=O)CCC(=O)N(C)Cc1ccccc1 | inactive
34 | C=CCn1c(O)c(C=NCCN2CCOCC2)c(=O)[nH]c1=S | inconclusive [inhibitor, single point]
35 | Cc1ccc(NC(=O)Cn2c(/C=C/c3ccccc3)nc3ccccc32)cc1C | inconclusive [inhibitor, single point]
36 | C=CCn1c(SCC(=O)Nc2cccc(S(N)(=O)=O)c2)nnc1C1CCCCC1 | inactive
37 | O=C(c1cccn2c(=O)c3ccccc3nc12)N1CCN(c2ccccn2)CC1 | inactive
38 | COc1ccccc1N1CCN(C(=O)c2ccc(Cl)c(S(=O)(=O)NCc3ccco3)c2)CC1 | inconclusive [inhibitor, partial curve]
39 | Cc1ccc2c(c1)C(=O)CCCCC(=O)N2 | inconclusive [inhibitor, single point]
40 | CC(=O)n1cc(N(C(=O)CCl)c2ccccc2)c2ccccc21 | inconclusive [inhibitor, full curve]
41 | Cc1cccc2[nH]c3c(N4CCN(C(=O)c5ccco5)CC4)ncnc3c12 | inconclusive [inhibitor, partial curve, poor fit]
42 | N#CC1=C2SCN(Cc3ccco3)CN2C(=O)CC1c1cccc2ccccc12 (stereo unspecified) | active: 11.7 µM
43 | CNC(=S)N/N=C(\C)c1ccc(Cl)c(Cl)c1 | inconclusive [inhibitor, partial curve]
44 | CN(C)S(=O)(=O)c1ccc(N2CCCC2)c(C(=O)NC2CCCCC2)c1 | inconclusive [inhibitor, single point]
45 | COc1ccc2ccccc2c1/C=N\NC(=O)c1ccc(C)s1 | inactive
46 | C/C(=N/NC(=O)c1ccc(C)nc1)c1ccc2c(c1)CCCC2 | inactive
47 | CC(NCCC1(Cc2ccccc2Cl)CCOC(C)(C)C1)c1cccs1 (stereo unspecified) | inconclusive [inhibitor, partial curve, poor fit]
48 | Cc1csc(NC(=O)CCN2C(=O)c3ccccc3S2(=O)=O)n1 | inactive

Row | SMILES | Potency
49 | Cc1ccc(Cl)cc1N1CCN(C(c2cccnc2)c2nnnn2C2CCCCC2)CC1 (stereo unspecified) | inconclusive [inhibitor, full curve]
50 | COc1ccc(CCC(=O)Nc2cnc3ccccc3c2)cc1 | inconclusive [inhibitor, full curve]
51 | CC(C)Oc1ccc(C(=O)Nc2nnc(SCC(=O)N3CCOCC3)s2)cc1 | inconclusive [inhibitor, single point]
52 | O=S1(=O)CCOCCCN1Cc1cccc(C(F)(F)F)c1 | inconclusive [inhibitor, partial curve, poor fit]
53 | CC(C)(C)NC(=O)C(c1ccncc1)N(Cc1cccs1)C(=O)Cn1nnc(-c2cccs2)n1 (stereo unspecified) | active: 2.94 µM
54 | CCOc1ccc(N2CC(C(=O)NC3=NCCS3)CC2=O)cc1 (stereo unspecified) | inactive
55 | C/C(CC(=O)Nc1ccc(OCc2ccccc2)cc1)=N\NC(=O)C(=O)Nc1ccccc1C | inconclusive [inhibitor, single point]
56 | CCOC(=O)c1c[nH]c2ccc3ccccc3c2c1=O | inconclusive [inhibitor, full curve]
57 | C/C(=N\Nc1ccc([N+](=O)[O-])cc1)c1ccc(N)cc1 | inconclusive [inhibitor, partial curve, poor fit]
58 | COc1ccc(NC2CCCN(C(=O)CCc3cccc(Cl)c3)C2)cc1 (stereo unspecified) | inactive
59 | O=C(/C=C\c1cccs1)c1c(O)ccc2ccc(=O)oc12 | inactive
60 | CCC(C)c1ccccc1NC(=O)COC(=O)c1ccc(C)c(NC(=O)c2ccco2)c1 (stereo unspecified) | inconclusive [inhibitor, single point]
61 | O=C(CCC1CCN(C(=O)c2ccccc2Cl)CC1)NCc1ccc(F)cc1 | inconclusive [inhibitor, partial curve, poor fit]
62 | CCCC(=O)N1c2ccccc2[C@@H](N(C(C)=O)c2ccccc2)C[C@H]1C | inconclusive [inhibitor, single point]
63 | CCn1c(SC(C)C(=O)NCC2CCCO2)nc2scc(-c3ccccc3)c2c1=O (stereo unspecified) | active: 7.38 µM
64 | Cc1ccc(N(Cc2cc(=O)[nH]c3ccccc23)C(=O)CCl)cc1 | active: 9.28 µM
65 | COc1cc2c(=O)n(Cc3ccccc3)c(=O)n(CC(=O)NCc3ccco3)c2cc1OC | inconclusive [inhibitor, partial curve]
66 | C[n+]1cc[nH]c1SCC(=O)c1ccc(Cl)cc1 | inactive
67 | CN1CCc2cc3c(c4c2[C@H]1[C@H](O)c1ccccc1-4)OCO3 | active: 1.65 µM
68 | CC(C)c1ccc(/C=N/NC(=O)c2nnn(-c3nonc3N)c2CSC2=NCCS2)cc1 | inconclusive [inhibitor, partial curve, poor fit]
69 | COCCCN(C(=S)Nc1cccc(Cl)c1)C(C)c1ccncc1 (stereo unspecified) | inconclusive [inhibitor, single point]
70 | O=S(=O)(c1ccc2c(c1)OCCO2)N1CCNCC1 | inactive
71 | CN1CCN(c2ccc([N+](=O)[O-])cc2NC(=O)c2ccccc2)CC1 | inconclusive [inhibitor, partial curve]
